Laboratory results: PubChem BioAssay (NCATS)
The inconclusive results got no clear call from the source; some entries with a clear call stand among them for comparison. Where the call is inconclusive, the potency comes from a doubtful curve fit. Activity calls are given as the source filed them. Calls follow the shape of the dose curve; as a rule, active = well fitted cell-killing curve with a large enough effect; inconclusive = small, poorly fitted or top-dose-only effect, or effect the other way; inactive = flat fitted curve, though single readings scatter. Numbered stars: 1 amine (or outer) side, 2 acyl side, 3 side chain; on linkers, the order of the positions; unused ones are H or OH. Square brackets hold non-standard residues; d marks the D form. Peptide text beside a SMILES is read from it. X9 = O=C([C@@H](CC(O)CCl)O[*:1])[*:2]; aIle = CC[C@@H](C)[C@H](N)C(=O)O; NMeV = CN[C@H](C(=O)O)C(C)C; NMeA = CN[C@@H](C)C(=O)O; βAla = NCCC(=O)O

What was measured:
Test in all cases: Primary qHTS to identify gynecologic anti-cancer compounds using libraries of approved drugs and bioactive compounds (AID 1345084); also: nearly all actives have a fitted effect of over 55% in size
Details in all cases: Gynecologic cancer cell panel viability, ATPlite luminescence, 48 h; series mostly up to 57.5 µM
SKOV3 = tested on: SKOV3
Summary of the method: (§1)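 Measured: luminescence after ATPlite addition (15 min, RT). Exposure: 48 h, 37 C, 5% CO2.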

Tov-21-G = tested on: Tov-21-G
Summary of the method: as §1

Tov112D = tested on: Tov112D
Summary of the method: as §1
Potency is read from the fitted curve at half-maximal effect; tags tell the direction and shape of the fitted curve.

SMILES | Potency (SKOV3) | Potency (Tov-21-G) | Potency (Tov112D)
COCC(=O)N(c1c(C)cccc1C)C(C)C(=O)OC (stereo not given) | inactive | inactive | 
CC(N[C@H]1C[C@H]1c1ccccc1)c1ccc2c(c1)OCCO2 (stereo not given in full) | inconclusive: 14.1 µM [rising, partial curve, poor fit] | inactive | 
Fc1cc(F)c2c(c1)C1C=CCC1C(c1cccnc1)N2 (stereo not given) | active: 11.2 µM | inconclusive: 28.2 µM [cytotoxic, single point] | inconclusive: 35.5 µM [cytotoxic, single point]
C[C@H]1CCC/C=C/C2C[C@H](O)C[C@H]2[C@H](O)/C=C/C(=O)O1 (stereo not given in full) | inconclusive: 0.251 µM [cytotoxic, full curve, poor fit] | active: 1 µM | active: 0.891 µM
C#C[C@]1(O)CC[C@H]2[C@@H]3CC[C@H]4Cc5nc6nc7ccccc7n6cc5C[C@]4(C)[C@H]3CC[C@@]21C | inconclusive: 28.2 µM [cytotoxic, single point] | inconclusive: 28.2 µM [cytotoxic, single point] | 
O=C(O)Cc1ccccc1 | inactive | inactive | 
COC1CC(OC2CCC3(C=O)C(CCC4C3CCC3(C)C(C5=CC(=O)OC5)CCC43O)C2)OC(C)C1OC1OC(CO)C(O)C(O)C1O (stereo not given) | active: 0.355 µM | active: 0.199 µM | active: 0.1 µM
CCN1CCCC1CNC(=O)C(O)(c1ccccc1)c1ccccc1 (stereo not given) | inactive |  | inactive
FC(F)(F)c1cccc(C2=CCN(CCc3ccc4ccccc4c3)CC2)c1 | inconclusive: 10 µM [rising, partial curve] | inactive | 
C[C@@H]1O[C@@H](O[C@H]2CC[C@@]3(C)C(CC[C@@H]4C3CC[C@]3(C)[C@@H](C5=CC(=O)OC5)CC[C@]43O)C2)[C@H](O[C@@H]2O[C@H](CO)[C@@H](O)[C@H](O)[C@H]2O)[C@H](O)[C@H]1O (stereo not given in full) | active: 2.24 µM | active: 0.708 µM | active: 0.224 µM
COc1cccc(NCC(F)Cn2c3ccc(Br)cc3c3cc(Br)ccc32)c1 (stereo not given) | active: 14.1 µM | inconclusive: 15.8 µM [cytotoxic, partial curve] | active: 10 µM
COc1cc(CC(C)N)cc2c1OCO2 (stereo not given) | inconclusive: 31.6 µM [rising, single point] | inactive | 
CCCCC(CC)COC(=O)c1ccccc1C(=O)OCC(CC)CCCC (stereo not given) | inconclusive: 1.41 µM [rising, full curve, poor fit] | inactive | 
Oc1ccc([C@H]2CNCc3c2ccc(O)c3O)cc1O | inactive | inactive | 
CC(=O)OC[C@]12C[C@H](OC(=O)CC(C)C)C(C)=C[C@H]1O[C@@H]1[C@H](O)C[C@@]2(C)[C@]12CO2 | inconclusive: 3.16 µM [cytotoxic, partial curve, poor fit] | active: 4.47 µM | active: 2.24 µM
C#CCO[C@H]1CN2CCC1CC2 | inactive | inactive | 
O=C(O)C(Cl)Cl | inconclusive: 14.1 µM [rising, partial curve] | inactive | 
CCC1NC(=O)C2C(Cl)C(Cl)CN2C(=O)C(CC)NC(=O)CC(c2ccccc2)NC(=O)C(CO)NC1=O (stereo not given) | inconclusive: 5.62 µM [rising, partial curve, poor fit] | inconclusive: 17.8 µM [cytotoxic, partial curve, poor fit] | 
C[C@H](CCC(=O)O)C[C@H](C)C[C@H](C)C(=O)/C=C(\O)[C@H](C)C[C@H](C)C/C=C/[C@@H](C)[C@@H](O)[C@@H](C)[C@@H](O)C[C@@H]1CC[C@@](C)([C@H]2CC[C@@](C)([C@@H](C)O)O2)O1 | inconclusive: 11.2 µM [cytotoxic, single point] | inconclusive: 12.6 µM [rising, single point] | 
CN1C[C@H](CNC(=O)OCc2ccccc2)C[C@@H]2c3cccc4c3c(cn4C)C[C@H]21 | inconclusive: 22.4 µM [cytotoxic, partial curve, poor fit] | inactive | 
COC1CC(OC2CCC3(C=O)C(CCC4C3CCC3(C)C(C5=CC(=O)OC5)CCC43O)C2)OC(C)C1O (stereo not given) | active: 0.199 µM | active: 0.178 µM | 
O=[N+]([O-])c1c2ccccc2cc2ccccc12 | inconclusive: 63.1 µM [cytotoxic, single point] | inactive | inactive
COC(=O)c1cncn1C(C)c1ccccc1 (stereo not given) | inactive | inactive | 
COc1ccc(CC2C(=O)NC(C)C(=O)N(C)C3Cc4ccc(cc4)Oc4cc(ccc4OC4OC(CO)C(O)C(O)C4O)CC(C(=O)NC(C)C(=O)NC(CCC(=O)O)C(=O)N2C)N(C)C3=O)cc1 (stereo not given) | inconclusive: 11.2 µM [cytotoxic, single point] | inconclusive: 5.01 µM [cytotoxic, single point] | inconclusive: 10 µM [cytotoxic, single point]

SMILES | Potency (SKOV3) | Potency (Tov-21-G) | Potency (Tov112D)
CC(=O)[O][Hg][c]1ccccc1 | active: 3.55 µM | active: 2.51 µM | active: 5.01 µM
CC[C@@H](C)[C@@H]1NC(=O)[C@@H]2CCCN2C(=O)[C@@H](CC(O)CCl)OC(=O)CCNC(=O)[C@H](C)N(C)C(=O)[C@H](C(C)C)N(C)C1=O (stereo not given in full) (cyclo([NMeA][βAla][X9]P[aIle][NMeV])) | inconclusive: 6.31 µM [cytotoxic, partial curve, poor fit] | inactive | active: 3.55 µM
C[C@]12CC[C@H](O[C@@H]3O[C@H](CO)[C@@H](O)[C@H](O)[C@H]3O)CC1CC[C@@H]1C2CC[C@]2(C)[C@@H](C3=CC(=O)OC3)CC[C@]12O (stereo not given in full) | active: 8.91 µM | active: 5.01 µM | active: 3.16 µM
Nc1ccc([As](=O)(O)O)cc1 | inconclusive: 8.91 µM [rising, full curve] | inactive | 
O=C(O)CCCOc1ccc(Cl)cc1Cl | inconclusive: 0.631 µM [rising, full curve, poor fit] | inactive | 
CC[C@@H]1C[C@H]2CC[C@H](O2)[C@H](C)C(=O)O[C@@H](C)C[C@@H]2CC[C@@H](O2)[C@@H](C)C(=O)O[C@H](C)C[C@H]2CC[C@H](O2)[C@H](C)C(=O)O[C@@H](C)C[C@@H]2CC[C@@H](O2)[C@@H](C)C(=O)O1 | active: 0.562 µM | inconclusive: 0.891 µM [cytotoxic, full curve, poor fit] | inconclusive: 0.224 µM [cytotoxic, full curve, poor fit]
O=C(C[C@@H]1NCCC[C@H]1O)Cn1cnc2ccccc2c1=O | inconclusive: 0.447 µM [cytotoxic, full curve, poor fit] | active: 0.794 µM | 
CN=C(NS(=O)(=O)c1ccc(Cl)cc1)N1C[C@H](c2ccccc2)C(c2ccc(Cl)cc2)=N1 |  | inactive | 
COc1cc(O)c2c(c1)CCC[C@@H](O)[C@H](O)C(=O)/C=C\C[C@H](C)OC2=O | inconclusive: 8.91 µM [cytotoxic, partial curve, poor fit] |  | inconclusive: 22.4 µM [cytotoxic, single point]
C=CCN1CC[C@]23CCCC[C@H]2[C@H]1Cc1ccc(O)cc13 |  | inactive | 
CNC(=O)N1N=C(c2ccc(N)cc2)c2cc3c(cc2CC1C)OCO3 (stereo not given) | inconclusive: 31.6 µM [cytotoxic, partial curve, poor fit] |  | inconclusive: 25.1 µM [cytotoxic, single point]
CN1C2CCC(C)(C)C1CC(OC(=O)C(O)(c1cccs1)c1cccs1)C2 (stereo not given) | inactive |  | inactive
COC1CCCC(C)OC(=O)Cc2cc(O)cc(O)c2C(=O)C1 (stereo not given) | inconclusive: 11.2 µM [cytotoxic, partial curve, poor fit] |  | inconclusive: 28.2 µM [cytotoxic, single point]
C[C@@H](CN1CCC(n2c(=O)[nH]c3cc(Br)ccc32)CC1)NC(=O)[C@@H]1C[C@H]1c1ccccc1 | inconclusive: 2.82 µM [rising, partial curve, poor fit] |  | inactive
Clc1ccccc1N1CCNCC1 |  | inactive | 
CN(C)CCc1c[nH]c2ccc(CN3CCN(C)S3(=O)=O)cc12 |  | inactive | 
CC(C)(O)/C=C/C(=O)[C@](C)(O)[C@H]1[C@H](O)C[C@@]2(C)[C@@H]3CC=C4[C@@H](C[C@H](O)C(=O)C4(C)C)[C@]3(C)C(=O)C[C@]12C | active: 0.794 µM |  | inconclusive: 5.01 µM [cytotoxic, partial curve]
O=c1[nH]c2cc(Cl)ccc2n1C1CCNCC1 | inactive |  | inactive
C[C@H]1CCC[C@H](O)CCC/C=C/c2cc(O)cc(O)c2C(=O)O1 |  | inactive | 
C=CC[C@]1(O)CC[C@H]2[C@@H]3CCC4=CC(=O)CCC4=C3C=C[C@@]21C | inconclusive: 35.5 µM [cytotoxic, partial curve, poor fit] |  | inactive
CC[C@H]1/C=C\C=C/C[C@@H](C)[C@H](O)[C@@](C)(O)C(=O)[C@@H](C)[C@H](O)[C@@H](C)C(=O)[C@@H](C)[C@H](O)[C@@H](C)/C=C\C(=O)O[C@@H]2[C@H](C)[C@H](CC1)O[C@]1(CC[C@H](C)[C@H](C[C@@H](C)O)O1)[C@H]2C | inconclusive: 0.501 µM |  | inconclusive: 22.4 µM [cytotoxic, partial curve, poor fit]
CC(C)=C[C@@H]1[C@@H](C(=O)OCc2coc(Cc3ccccc3)c2)C1(C)C | inactive |  | inactive
N[C@@H](Cc1ccc(Oc2cc(I)c(O)c(I)c2)c(I)c1)C(=O)O |  | inactive | 
